Assay results: patent publication US10690661B2, “Yeast-based biosensor” (priority 2014, dated 2020)

Biological target: mutant Ste2 receptors isolated for activity for ligand Variant 44
Assay: GFP/RFP reporter dose response, mutants isolated for activity for ligand Variant 44

| Sequence | EC50 relative to Ste2 (four of five isolated mutants, FIG. 3A) | activity of isolated mutants for the native pheromone (FIG. 3B) |
| --- | --- | --- |
| WAWLQLKPGQPMY | significantly lower |  |
| WHWLQLKPGQPMY [α-factor] |  | maintained some activity |
